Test results from article PMC6212790.
The list shows a part of the results. At the low end of the ranking the order means little.

Target: T1, GST-Rok-C97-191 (UniProt O34857)
T1 sequence: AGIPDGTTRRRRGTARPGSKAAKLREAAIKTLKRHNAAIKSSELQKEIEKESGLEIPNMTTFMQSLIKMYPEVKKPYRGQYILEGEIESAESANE
Test: protein binding microarray;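 further: rank score from −0.5 (least bound) to 0.5 (best bound)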
Conditions: Rok is a gene silencer of Bacillus subtilis; high values mean tight binding; most listed sequences are background and not binding sites; double strand, one strand shown

Row | Sequence | binding signal [E-score]
1 | GCAGGGCA | -0.207
2 | CTCAAGAC | -0.206
3 | CACTCGCG | -0.00827
4 | AATGGTAT | 0.328
5 | ATGTCCTC | -0.0441
6 | AGTATAAA | 0.289
7 | AATGGCCC | 0.109
8 | ACGGGGCT | -0.144
9 | ATATATAT | 0.443
10 | TGAGAACA | -0.0288
11 | TCCCACCA | -0.245
12 | TAGTCGAA | 0.0574
13 | CGGAGGGC | -0.276
14 | AACAGCTT | 0.0324
15 | GGGTGTGA | -0.225
16 | AATAGTCT | 0.0533
17 | ACAAGTCA | -0.0107
18 | ATGGCTTG | -0.101
19 | AGGTGAAT | -0.0354
20 | CCACGCCG | -0.326
21 | CACTATAC | 0.0932
22 | CGGGGCCA | -0.0415
23 | ACATCCGT | 0.0993
24 | CCACCTCA | -0.113
25 | CCTTGCAC | -0.11

Row | Sequence | binding signal [E-score]
26 | CGAATTTA | 0.187
27 | ATGTACGA | 0.226
28 | AAATCGTA | 0.167
29 | CATGCACG | -0.127
30 | CGTCAAGC | 0.00259
31 | TTTCCAAA | 0.0983
32 | ACGCTCAC | -0.0887
33 | GGACGGGA | -0.208
34 | GGGTTAAA | 0.202
35 | TATACATA | 0.401
36 | ACTAGGTA | 0.251
37 | CGATCAAC | 0.0491
38 | CGAAGAAG | -0.184
39 | AAATCAGA | 0.0403
40 | CCGCGGAG | -0.19
41 | ACCGAATC | -0.0933
42 | ACCGTTCA | 0.218
43 | CACCCTAC | -0.0195
44 | ATTCTAGC | 0.249
45 | CCTAGCAA | 0.105
46 | ACAGGAAA | 0.0683
47 | TTCCGGAA | -0.206
48 | CATACTGG | 0.179
49 | AATTGCGG | 0.0377
50 | CAAGAAGG | -0.193

Row | Sequence | binding signal [E-score]
51 | ACCGTATG | 0.0299
52 | CAGGAAGC | -0.162
53 | ACGGCGCT | -0.18
54 | GGTGCTAA | -0.249
55 | CGCTCACG | -0.284
56 | ACCACAGT | 0.0254
57 | TTACGCAA | 0.0483
58 | ACTGTTAA | 0.114
59 | TACCCGTA | 0.0307
60 | AAGTCGAG | -0.138
61 | ACGATAAG | 0.173
62 | ATGATCAG | 0.117
63 | AATTTGCC | 0.0991
64 | GGAAGCGA | -0.0973
65 | AGATGAGG | -0.119
66 | ACTCAACT | 0.0515
67 | AATCCAGC | -0.0135
68 | TCGGGGAA | -0.165
69 | AACACACG | -0.0535
70 | AACGAAGG | -0.132
71 | ACGCCTGG | -0.228
72 | AACTCCTG | -0.0788
73 | AGCTGCCA | -0.0119
74 | CTCCCACC | -0.233
75 | CTAGCAAC | 0.222

Row | Sequence | binding signal [E-score]
76 | AGTACCCG | -0.0244
77 | ACAAGCAG | -0.0955
78 | CGGAAACG | -0.196
79 | GGCAGTAC | -0.0613
80 | CAAACTAC | 0.446
81 | CGAGAGCC | -0.299
82 | GGACCGGA | -0.125
83 | GAGCCATA | -0.121
84 | AAGGTCCC | -0.368
85 | CCATTCAG | -0.0929
86 | CTGATTTA | 0.00411
87 | GCCCACAC | -0.12
88 | TCCGCAAA | -0.216
89 | GCCAGTAC | -0.0877
90 | AGAGATCC | -0.0984
91 | AAAGTCAG | -0.033
92 | CGGTTTAA | 0.00113
93 | GCTTCAAC | 0.0139
94 | AACAGGGT | 0.0781
95 | CCTTGATA | 0.0226
96 | CCGATCAG | -0.0114
97 | TTGGCCAA | -0.309
98 | CGCTGTGC | -0.189
99 | AGCCTGGG | -0.0869
100 | CTGGTTTC | -0.12

Row | Sequence | binding signal [E-score]
101 | GGTACTGA | -0.0797
102 | GTCATAAC | -0.251
103 | GTTGTCGA | 0.0565
104 | TAGCACAA | 0.179
105 | CTCACCGC | -0.109
106 | AATCCGTC | 0.0808
107 | ACGCCGAG | -0.211
108 | AGTGCCAT | 0.0196
109 | AGACGTCA | 0.0181
110 | GAAAACGA | -0.0582
111 | ACAAAACT | 0.105
112 | AAGCCAAT | -0.0313
113 | GACGAGCC | -0.226
114 | AGACGGGG | -0.252
115 | AGCAAATA | 0.207
116 | AGCGTCGG | -0.144
117 | AAAAATGC | 0.0184
118 | GCGAAGTA | 0.182
119 | CAGATATC | -0.00243
120 | AGGGTATG | -0.182
121 | CCTAAGGA | -0.0692
122 | ATCGCGCG | 0.0721
123 | ACCCGCCT | -0.317
124 | AAAACCTA | 0.297
125 | TCGCTGCA | -0.111

Row | Sequence | binding signal [E-score]
126 | CCCGCCAA | -0.237
127 | GGGGAGGA | -0.314
128 | AGGATGGA | -0.22
129 | ATTGCTCA | 0.0529
130 | CTCAAGAG | 0.00759
131 | CCGCGTAC | 0.00133
132 | GACTCCCC | -0.37
133 | CCGATACC | 0.0851
134 | CGTACGGA | -0.0542
135 | AGGCTGAG | -0.207
136 | ACCGCACC | -0.266
137 | CTGCAGGA | -0.28
138 | CACTGAAA | -0.232
139 | CGCGCAAC | -0.148
140 | GCAAGTCC | -0.225
141 | GTGTGTTA | 0.0623
142 | CGATTAAC | -0.125
143 | CGGCCGGC | -0.249
144 | ACCCTTGA | -0.115
145 | ATTAGATG | 0.265
146 | ACCACATG | 0.0265
147 | AAGGTGCG | -0.288
148 | ACCCGTAC | -0.125
149 | ACGACAGC | -0.172
150 | AATCCGAG | 0.115

Row | Sequence | binding signal [E-score]
151 | ACATCACC | -0.123
152 | CGAGAGAG | -0.15
153 | GCTAACGA | 0.131
154 | AAATAGGA | 0.152
155 | GGGAATTA | 0.135
156 | ACGCTAAT | 0.258
157 | ATGCCCTG | -0.0941
158 | CCTCCATC | -0.129
159 | GATTAGGA | -0.051
160 | CCGGGGTC | -0.34
161 | AGCATCCG | -0.119
162 | TACTAACA | 0.177
163 | TCACACGA | -0.105
164 | ACAGTTTA | -0.0129
165 | GTGCGGAA | -0.0499
166 | ATGGCAAG | 0.0535
167 | GACTCGTA | -0.148
168 | AAAAAAGC | 0.0176
169 | ATTGCACG | 0.034
170 | CCTCGCAC | -0.215
171 | CTAATACC | 0.262
172 | CGCTTGGC | -0.145
